According to paper PMC9911399, “Two distinct binding modes provide the RNA-binding protein RbFox with extraordinary sequence specificity”:
Where a chain is given by its changes, count along the chain named. The list shows a part of the results.

T1: RBFOX1 RRM (Homo sapiens, UniProt Q9NWB1 109-208)
T1 sequence: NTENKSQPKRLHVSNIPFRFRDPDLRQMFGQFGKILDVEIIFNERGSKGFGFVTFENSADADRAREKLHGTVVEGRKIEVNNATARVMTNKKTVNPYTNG

B1: UCGGAUU (DNA:RNA)
RNA: GGGAGACCGGAAUUCAGAUUGUCCUCGGAUUUUAAAUCCCGUCGUAGCCACCA
DNA 1: CAATCTGAATTCCGGTCTCCC
DNA 2: TGGTGGCTACGACGGGATT
B2: CACAGAA (DNA:RNA)
RNA: GGGAGACCGGAAUUCAGAUUGUCCCACAGAAUUAAAUCCCGUCGUAGCCACCA
DNA 1: CAATCTGAATTCCGGTCTCCC
DNA 2: TGGTGGCTACGACGGGATT
B3: CUAUCUG (DNA:RNA)
RNA: B2 RNA with A26U, C27A, A28U, G29C, A30U, A31G
DNA 1: CAATCTGAATTCCGGTCTCCC
DNA 2: TGGTGGCTACGACGGGATT
B4: GAUGUGC (DNA:RNA)
RNA: B2 RNA with C25G, C27U, A28G, G29U, A30G, A31C
DNA 1: CAATCTGAATTCCGGTCTCCC
DNA 2: TGGTGGCTACGACGGGATT
B5: AAUAAAG (DNA:RNA)
RNA: B2 RNA with C25A, C27U, G29A, A31G
DNA 1: CAATCTGAATTCCGGTCTCCC
DNA 2: TGGTGGCTACGACGGGATT
B6: UAGGAAA (DNA:RNA)
RNA: B1 RNA with C26A, U30A, U31A
DNA 1: CAATCTGAATTCCGGTCTCCC
DNA 2: TGGTGGCTACGACGGGATT
B7: GGAGUGA (DNA:RNA)
RNA: B2 RNA with C25G, A26G, C27A, A28G, G29U, A30G
DNA 1: CAATCTGAATTCCGGTCTCCC
DNA 2: TGGTGGCTACGACGGGATT
B8: AGGACCG (DNA:RNA)
RNA: B2 RNA with C25A, A26G, C27G, G29C, A30C, A31G
DNA 1: CAATCTGAATTCCGGTCTCCC
DNA 2: TGGTGGCTACGACGGGATT
B9: AGAAUCC (DNA:RNA)
RNA: B2 RNA with C25A, A26G, C27A, G29U, A30C, A31C
DNA 1: CAATCTGAATTCCGGTCTCCC
DNA 2: TGGTGGCTACGACGGGATT
B10: UGGACCA (DNA:RNA)
RNA: B2 RNA with C25U, A26G, C27G, G29C, A30C
DNA 1: CAATCTGAATTCCGGTCTCCC
DNA 2: TGGTGGCTACGACGGGATT
B11: GGGACAC (DNA:RNA)
RNA: B2 RNA with C25G, A26G, C27G, G29C, A31C
DNA 1: CAATCTGAATTCCGGTCTCCC
DNA 2: TGGTGGCTACGACGGGATT
B12: ACAAGCC (DNA:RNA)
RNA: B2 RNA with C25A, A26C, C27A, A30C, A31C
DNA 1: CAATCTGAATTCCGGTCTCCC
DNA 2: TGGTGGCTACGACGGGATT
B13: UCGCUUG (DNA:RNA)
RNA: B1 RNA with G28C, A29U, U31G
DNA 1: CAATCTGAATTCCGGTCTCCC
DNA 2: TGGTGGCTACGACGGGATT
B14: ACCUAUU (DNA:RNA)
RNA: B1 RNA with U25A, G27C, G28U
DNA 1: CAATCTGAATTCCGGTCTCCC
DNA 2: TGGTGGCTACGACGGGATT
B15: GAGAAUG (DNA:RNA)
RNA: B1 RNA with U25G, C26A, G28A, U31G
DNA 1: CAATCTGAATTCCGGTCTCCC
DNA 2: TGGTGGCTACGACGGGATT
B16: GAUUACG (DNA:RNA)
RNA: B2 RNA with C25G, C27U, A28U, G29A, A30C, A31G
DNA 1: CAATCTGAATTCCGGTCTCCC
DNA 2: TGGTGGCTACGACGGGATT
B17: UAGCCAA (DNA:RNA)
RNA: B2 RNA with C25U, C27G, A28C, G29C
DNA 1: CAATCTGAATTCCGGTCTCCC
DNA 2: TGGTGGCTACGACGGGATT
B18: AUCCUGA (DNA:RNA)
RNA: B2 RNA with C25A, A26U, A28C, G29U, A30G
DNA 1: CAATCTGAATTCCGGTCTCCC
DNA 2: TGGTGGCTACGACGGGATT
B19: UCUUCGC (DNA:RNA)
RNA: B1 RNA with G27U, G28U, A29C, U30G, U31C
DNA 1: CAATCTGAATTCCGGTCTCCC
DNA 2: TGGTGGCTACGACGGGATT
B20: GGAAUUC (DNA:RNA)
RNA: B2 RNA with C25G, A26G, C27A, G29U, A30U, A31C
DNA 1: CAATCTGAATTCCGGTCTCCC
DNA 2: TGGTGGCTACGACGGGATT
B21: GCUGAUU (DNA:RNA)
RNA: B1 RNA with U25G, G27U
DNA 1: CAATCTGAATTCCGGTCTCCC
DNA 2: TGGTGGCTACGACGGGATT
B22: ACGGGGG (DNA:RNA)
RNA: B1 RNA with U25A, A29G, U30G, U31G
DNA 1: CAATCTGAATTCCGGTCTCCC
DNA 2: TGGTGGCTACGACGGGATT
B23: GCAAUAA (DNA:RNA)
RNA: B2 RNA with C25G, A26C, C27A, G29U
DNA 1: CAATCTGAATTCCGGTCTCCC
DNA 2: TGGTGGCTACGACGGGATT
B24: CCAAAGU (DNA:RNA)
RNA: B1 RNA with U25C, G27A, G28A, U30G
DNA 1: CAATCTGAATTCCGGTCTCCC
DNA 2: TGGTGGCTACGACGGGATT
B25: GUGCCUU (DNA:RNA)
RNA: B1 RNA with U25G, C26U, G28C, A29C
DNA 1: CAATCTGAATTCCGGTCTCCC
DNA 2: TGGTGGCTACGACGGGATT
B26: UCAACAG (DNA:RNA)
RNA: B2 RNA with C25U, A26C, C27A, G29C, A31G
DNA 1: CAATCTGAATTCCGGTCTCCC
DNA 2: TGGTGGCTACGACGGGATT
B27: UUUUUCC (DNA:RNA)
RNA: B1 RNA with C26U, G27U, G28U, A29U, U30C, U31C
DNA 1: CAATCTGAATTCCGGTCTCCC
DNA 2: TGGTGGCTACGACGGGATT
B28: GCUGUGC (DNA:RNA)
RNA: B1 RNA with U25G, G27U, A29U, U30G, U31C
DNA 1: CAATCTGAATTCCGGTCTCCC
DNA 2: TGGTGGCTACGACGGGATT
B29: UGUGUAU (DNA:RNA)
RNA: B1 RNA with C26G, G27U, A29U, U30A
DNA 1: CAATCTGAATTCCGGTCTCCC
DNA 2: TGGTGGCTACGACGGGATT
B30: ACAGGAG (DNA:RNA)
RNA: B2 RNA with C25A, A26C, C27A, A28G, A31G
DNA 1: CAATCTGAATTCCGGTCTCCC
DNA 2: TGGTGGCTACGACGGGATT
B31: GUGAGGC (DNA:RNA)
RNA: B2 RNA with C25G, A26U, C27G, A30G, A31C
DNA 1: CAATCTGAATTCCGGTCTCCC
DNA 2: TGGTGGCTACGACGGGATT

These binders were tested against T1, RBFOX1 RRM (assay: EMSA; HiTS-Eq, 1 nM pool, 10 min; buffer printed only for the single-RNA assays: 10 mM Tris pH 7.5, 150 mM NaCl, 3.4 mM EDTA, 0.001% NP-40, 30 C). Conditions: tags: His6 N-terminal (pET28a); label: 5' 32P.
In short: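 Purified RbFox RRM (wild type or mutant) was equilibrated for 10 min in 50 µL with 1 nM of a 5′-radiolabelled pool of RNA with 7 randomized nucleotides, its flanks annealed to DNA oligonucleotides, across increasing protein concentrations. Free RNA was separated by 8% native PAGE, excised, reverse-transcribed, PCR-barcoded and sequenced on an Illumina HiSeq 2500. Relative association constants came from read-count changes of each variant against the control reaction, normalised to the cognate motif.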

Binder	binding signal
B1	0.00345 KA relative to UGCAUGU
B2	0.00249 KA relative to UGCAUGU
B3	0.00983 KA relative to UGCAUGU
B4	0.0168 KA relative to UGCAUGU
B5	0.00348 KA relative to UGCAUGU
B6	0.00352 KA relative to UGCAUGU
B7	0.0106 KA relative to UGCAUGU
B8	0.017 KA relative to UGCAUGU
B9	0.00784 KA relative to UGCAUGU
B10	0.0148 KA relative to UGCAUGU
B11	0.0278 KA relative to UGCAUGU
B12	0.000601 KA relative to UGCAUGU
B13	0.0368 KA relative to UGCAUGU
B14	0.00145 KA relative to UGCAUGU
B15	0.0321 KA relative to UGCAUGU
B16	0.0106 KA relative to UGCAUGU

Binder	binding signal
B17	0.00414 KA relative to UGCAUGU
B18	0.00629 KA relative to UGCAUGU
B19	0.0142 KA relative to UGCAUGU
B20	0.018 KA relative to UGCAUGU
B21	0.0205 KA relative to UGCAUGU
B22	0.0156 KA relative to UGCAUGU
B23	0.00157 KA relative to UGCAUGU
B24	0.00134 KA relative to UGCAUGU
B25	0.0138 KA relative to UGCAUGU
B26	0.00335 KA relative to UGCAUGU
B27	0.0127 KA relative to UGCAUGU
B28	0.0218 KA relative to UGCAUGU
B29	0.0191 KA relative to UGCAUGU
B30	0.00486 KA relative to UGCAUGU
B31	0.0084 KA relative to UGCAUGU
